According to a collection of fitness landscapes (doi:10.1016/j.celrep.2020.107928):
In all, about 81,000 sequences were measured (“one-hybrid fitness for binding NBS DNA”: median about -0.1, highest 2% from about 0.36 on). The list shows a part of the results.

B1: Caulobacter ParB omega fusion; a variant is named by its letters at X, in order, B8GW30 (parent)
chain: MESVVVGEPGMSEGRRGLGRGLSALLGEVDAAPAQAPGEQLGGSREAPIEILQRNPDQPRRTFREEDLEDLSNSIREKGVLQPILVRPSPDTAGEYQIVAGERAWRAAQRAGLKTVPIMVRELDDLAVLEIGIIENVQRADLNVLEEALSYKVLMEKFERTQENIAQTIGKSXSHVANXMRLLXLPDEVQSYLVSGELTAXHARAIAAAADPVALAKQIIEGGLSVRETEALARKAPNLSAGKSKGGRPPRVKDTDTQALESDLSSVLGLDVSIDHRGSTGTLTITYATLEQLDDLCNRLTRGI

Variants of: B1
Experiment: one-hybrid fitness for binding NBS DNA (the Noc-binding site; scaled: cognate 1, non-cognate 0); higher = stronger binding
Details: with NBS DNA site
Method in brief: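 Fitness here means the log change in variant-to-wild-type read ratio between plasmids sequenced before and after selection. That scale was set so cognate equals 1 and non-cognate equals 0. The selection was a bacterial one-hybrid screen of Caulobacter ParB libraries, four specificity codons randomised, in E. coli USO carrying a HIS3 reporter with the site 19 bp from the promoter, grown 48 hours at 37°C on M9-minus-histidine with 0.1 mM IPTG and 5 mM 3-AT.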

| Variant | one-hybrid fitness for binding NBS DNA |
| --- | --- |
| IHKC | ≤ 0.2 |
| RSSS | 0.437 |
| AELM | ≤ 0.2 |
| NGIS | ≤ 0.2 |
| FRNT | ≤ 0.2 |
| PARS | ≤ 0.2 |
| QTAK | ≤ 0.2 |
| SNMG | ≤ 0.2 |
| TRSC | ≤ 0.2 |
| NPLV | ≤ 0.2 |
| MDYT | ≤ 0.2 |
| TLQK | ≤ 0.2 |
| HADK | ≤ 0.2 |
| WVNR | ≤ 0.2 |
| GNAS | ≤ 0.2 |
| FLMS | ≤ 0.2 |
| TPSM | ≤ 0.2 |
| QELA | ≤ 0.2 |
| PQRH | ≤ 0.2 |
| HYKG | ≤ 0.2 |
| SLME | ≤ 0.2 |
| AILP | ≤ 0.2 |
| SLLV | ≤ 0.2 |
| MHDY | ≤ 0.2 |
| TSHG | ≤ 0.2 |
| ESGT | ≤ 0.2 |

| Variant | one-hybrid fitness for binding NBS DNA |
| --- | --- |
| QYYS | 0.312 |
| NMWY | ≤ 0.2 |
| SWRY | ≤ 0.2 |
| GSNL | ≤ 0.2 |
| FCGG | ≤ 0.2 |
| YWNW | ≤ 0.2 |
| DWNR | ≤ 0.2 |
| CRRS | ≤ 0.2 |
| ERAS | ≤ 0.2 |
| PHAY | ≤ 0.2 |
| TYQE | ≤ 0.2 |
| AQIT | ≤ 0.2 |
| VAVS | ≤ 0.2 |
| HHPK | ≤ 0.2 |
| PMEG | ≤ 0.2 |
| TLAG | ≤ 0.2 |
| GSRS | ≤ 0.2 |
| PHFC | ≤ 0.2 |
| KVER | ≤ 0.2 |
| YPGL | ≤ 0.2 |
| HRNV | ≤ 0.2 |
| WFSS | ≤ 0.2 |
| PTYV | ≤ 0.2 |
| VAPC | ≤ 0.2 |
| DSTY | ≤ 0.2 |
| QRVT | 0.69 |

| Variant | one-hybrid fitness for binding NBS DNA |
| --- | --- |
| YSWG | ≤ 0.2 |
| RDLC | ≤ 0.2 |
| PPSI | ≤ 0.2 |
| EYIM | ≤ 0.2 |
| IMQG | ≤ 0.2 |
| ATSD | ≤ 0.2 |
| VQPN | ≤ 0.2 |
| HSLR | ≤ 0.2 |
| KAAV | ≤ 0.2 |
| TPYA | ≤ 0.2 |
| RNHY | ≤ 0.2 |
| YQRS | ≤ 0.2 |
| HAFI | ≤ 0.2 |
| GKPN | ≤ 0.2 |
| DNAY | ≤ 0.2 |
| TFSV | ≤ 0.2 |
| FFTC | ≤ 0.2 |
| CKGC | ≤ 0.2 |
| SLMY | ≤ 0.2 |
| YLKT | ≤ 0.2 |
| ILCA | ≤ 0.2 |
| SRHP | ≤ 0.2 |
| GRTK | ≤ 0.2 |
| RAET | ≤ 0.2 |
